Experimental data reported in patent publication US20100055093A1 (RECEPTOR BIOLOGIX, published 2010).

Target: the molecule itself
Assay: self-association by size exclusion chromatography (apparent over calculated molecular weight)

B1: HFD100T (HER[…]/Fc with His tag) (Fc fusion)
chain: not shown
Q: With B1 as the protein, how does the “M. Wt. (ap):M. Wt.” value read?
A: 5.39
